Test results published in ChEMBL document CHEMBL1156829.
Where “and” joins values, the source holds several entries; their conditions need not be identical. Identical values can stand only once. In all, about 5,400 compounds were measured (“IFI”: median about 2, highest 2% from about 22 on). The list shows a part of the results.

Experiment: NOVARTIS: Inhibition Frequency Index (IFI) - the number of HTS assays where a compound showed > 50% inhibition/induction, expressed as a percentage of the number of assays in which the compound was tested.
Assay type: functional

Compound	IFI
COc1cc(-c2cc(C(F)(F)F)n3ncc(C(=O)Nc4cc(C)ccc4O)c3n2)cc(OC)c1OC	0%
CC(NCc1ccccc1)c1cc(Cl)ccc1O (stereo not drawn)	0%
N#Cc1ccc(CNC(=S)Nc2cc(Cl)ccc2Cl)cc1	3.12%
Cc1ccccc1Oc1ccc(S(=O)(=O)NC(CC(C)C)C(=O)O)cc1 (stereo not drawn)	0%
Cc1nc(NN=Cc2c(O)ccc3ccccc23)cc(N2CCCCC2)n1	7.69%
CC(=O)Nc1ccc2c(c1)C(=O)N(C(C(=O)NCc1ccccc1)C1CCCCC1)[C@@H](Cc1ccc(O)cc1)C(=O)N2 (stereo partly drawn)	2.44%
O=C(Nc1ccc(-c2nnc(-c3ccc(NC(=O)c4ccccc4[N+](=O)[O-])cc3)o2)cc1)c1ccccc1[N+](=O)[O-]	0%
CC1(C)CC(=O)c2cc(-c3ccc(Br)cc3)n(-c3ccccc3F)c2C1	3.12%
Clc1cccc(-c2cn3ccnc3c(N3CCN(c4ccncc4)CC3)n2)c1	4.4%
Cc1ccc(NC2=C(c3ccc(C(F)(F)F)cc3)C(=O)c3ccccc32)cc1F	0%
Clc1ccccc1Nc1nc2nonc2nc1Nc1cccc(Br)c1	15.4%
O=S(=O)(NCCNc1ncnc2scc(-c3ccccc3)c12)c1ccc(Cl)c(Cl)c1	1.67%
O=C(Nc1ccc(F)c(F)c1)c1ccccc1[N+](=O)[O-]	0%
CC1=C(C(=O)OC(C)C)C(c2ccc(Br)cc2)C2=C(CC(c3ccc(Cl)cc3)CC2=O)N1 (stereo not drawn)	3.61%
CCOCCCN(C(=O)C(F)(F)F)C(C(=O)NC1CCCCC1)c1ccncc1 (stereo not drawn)	0%
Cc1ccn2c(NC(C)(C)CC(C)(C)C)c(-c3ccccc3OC(=O)CCC3CCCC3)nc2c1	2.8%
NCCNC(=O)COC(c1cccnc1)c1ccccc1Cl (stereo not drawn)	0.971%
COc1ccc(/C=C(/C#N)C(=O)Nc2cccc3ccccc23)cc1	0%
CCOc1ccc(CCN2C(=S)N(c3cccc(C(F)(F)F)c3)C(=O)C2CC(=O)Nc2ccc(C(=O)OC)cc2)cc1OCC (stereo not drawn)	3.26%
Brc1cc(Br)c2c(-c3ccccc3)n(-c3ccccc3)nc(-c3ccccc3)c1-2	0%
CCc1ccc(C(=O)N(C)CCCNc2ccnc3cc(Cl)ccc23)cc1	7.34%
Cc1ccc(C[n+]2cc(-c3ccc(C)cc3)n3c2CCC3)cc1	4.88%
O=C(C[n+]1cc(-c2ccc(Cl)cc2)n2c1CCC2)c1ccc(C2CCCCC2)cc1	27.5%
O=C(Nc1cc(C(F)(F)F)ccc1OCc1ccccc1)c1ccccc1O	0%
CCOC(=O)c1cnc2c(OC)cccc2c1Nc1ccc(OC)c(OC)c1	0%

Compound	IFI
CCc1cc(C(=O)N2CCC[C@@H]3CN(C(=O)c4ccc(F)cc4)CC[C@@H]32)n(C)n1	0.98%
N=c1c2c(n(Cc3ccc(Cl)c(Cl)c3)c3c1CCC3)CCCC2	14.3%
c1ccc2cc3c(N4CCN(CCCN5CCN(c6ccnc7cc8ccccc8cc67)CC5)CC4)ccnc3cc2c1	7.14%
CCOC(=O)C1(CC)CC(C)(C(=O)C[n+]2cccc(Br)c2)OC1=O (stereo not drawn)	0%
CCN1CCN(Cc2c(O)ccc3c(=O)c(Oc4cccc(C)c4)c(C(F)(F)F)oc23)CC1	1.18%
COc1ccc2nc(C)cc(Nc3ccc(Oc4ccc5ccccc5c4)c(Cl)c3)c2c1	7.14%
COc1cc(/C=C(\C#N)c2nc3ccccc3[nH]2)ccc1OCc1ccccc1Cl	0%
CCN1CCC(N2C[C@H](n3cc(C(=O)OC)nn3)C[C@H]2C(=O)NCc2cccc(C(F)(F)F)c2)CC1	0.99%
CCOc1cc2c(cc1OCC)C(c1ccc(O)c(Cl)c1)NCC2 (stereo not drawn)	0%
COc1ccc(NC(=O)CCCCCn2c(SCC(=O)c3ccccc3)nc3ccsc3c2=O)cc1	0%
COc1ccc2nc(C)cc(Nc3ccc(Oc4ccc(Br)c5ccccc45)c(Cl)c3)c2c1	13.6%
C=CC1CN2CCC1CC2C(O)c1ccnc2ccc(OC)cc12 (stereo not drawn)	1.82%
O=c1c2c([nH]c3cc(Cl)ccc13)CCCC2	0%
CC(C)CCNCC(O)Cn1c2ccc(Br)cc2c2cc(Br)ccc21 (stereo not drawn)	10.1%
CCCOC(=O)C1=C(C)NC2=C(C(=O)CC(c3ccc(OC)c(OC)c3)C2)C1c1ccc(Cl)c(Cl)c1 (stereo not drawn)	4.71%
COC(=O)C1=C(O)/C(=C\c2cc(C)n(-c3ccccc3F)c2C)N=C1C	0%
C#CCNC(=O)c1ccc(OC2CCN(CC(c3ccccc3)c3ccccc3)CC2)c(OC)c1	2.74%
O=C(NCCCNC(=O)Nc1cccc(C2=NCCN2)c1)Nc1cccc(C2=NCCN2)c1	0%
CN(CCCNc1ccnc2cc(Cl)ccc12)S(=O)(=O)c1cccc2cccnc12	6.48%
CCCCNC(=O)CSCc1cnn(-c2ccccc2)c1-n1cccc1	2.44%
CCOc1ccc2c(c1)c1nnc(-c3ccc4c(c3)OCO4)c-1cn2Cc1ccc(Cl)cc1	5.88%
COc1ccc(Br)cc1CNC(=O)CCCN1C(=O)COc2ccc(C)cc21	0%
O=C(NCCCCNC(=O)Nc1cccc(C2=NCCN2)c1)Nc1cccc(C2=NCCN2)c1	0.901%
CCCCCCN(C(=O)COCc1ccccc1)C(CC)c1nc2ccccc2c(=O)n1-c1cccc(Cl)c1 (stereo not drawn)	0.943%
CC(=O)N1CCc2cc(NC3CCN(Cc4ccccc4)CC3)ccc21	1.49%

Compound	IFI
CCOC(=O)c1cnn(-c2ccnc3cc(Cl)ccc23)c1CNC(C)c1ccco1 (stereo not drawn)	2.59%
Cc1ccc(NC(C)c2nc3ccccc3c(=O)n2CCOC2CCCCO2)cc1C (stereo not drawn)	1.91%
O=C(Cn1ccc(=NCc2ccccc2)cc1)c1cccc(Br)c1	0%
Cc1ccc(/C=C/c2ccc3ccccc3[n+]2C)cc1	5.98%
Cc1cc(C)[n+](C)n1CC(O)Cn1c2ccccc2c2ccccc21 (stereo not drawn)	1.03%
COC(=O)c1ccc(C2C3=C(O)CC(c4ccco4)CC3=Nc3ccccc3N2C(=O)c2ccccc2)cc1 (stereo not drawn)	4.08% and 2.41%
C[n+]1cccc(/C=C2/c3ccccc3-c3ncccc32)c1	0%
Cc1ccc(-c2nnc(NCc3ccccc3)c3ccccc23)cc1S(=O)(=O)NCC1CCCO1 (stereo not drawn)	2.94%
c1ccc(Nc2ccnc(Nc3ccccc3)n2)cc1	5.2%
CCN(CC)CCNC(=O)C1c2ccccc2C(=O)N(Cc2ccc(F)cc2)C1c1ccc(OC)cc1 (stereo not drawn)	0%
CCOC(=O)C1=C(C)NC2=C(C(=O)CC(c3ccc(OC)c(OC)c3)C2)C1c1ccccc1Cl (stereo not drawn)	3.53%
CCOC(=O)c1cc(-c2ccc(OC)cc2)n(CCC(=O)NCc2ccc(OC)cc2)c1C	0%
O=C(N1CCCCC1)n1nnc2ccccc21	3.33%
COc1ccccc1C(c1nnnn1Cc1ccc(F)cc1)N1CCN(C)CC1 (stereo not drawn)	0%
Cc1ccc2nc(-c3ccc(O)cc3)oc2c1	7.14%
COc1ccc(CCN2CCC(Nc3nc4ccccc4n3Cc3ccc(F)cc3)CC2)cc1	2.37%
COc1cccc(CNc2cc(C(=O)NCCNC(C)=O)cc(S(=O)(=O)N(C)C)c2)c1OC	6.02%
CC(C)C(=O)N(C)CCCNc1ccnc2cc(Cl)ccc12	2.8%
CC(=O)Nc1nc(-c2ccc(F)cc2)cs1	0%
N#Cc1c(N)nc(SCC(=O)c2ccc([N+](=O)[O-])cc2)c(C#N)c1-c1ccccc1	2.35%
O=C1N(c2ccccc2)C[C@@H]2C[C@@H](c3ccc(C#CCCO)cc3)N3CCC[C@@]123	0%
COc1cccc2c1C(=O)c1c(O)c3c(c(O)c1C2=O)C[C@](O)(C(C)=O)C[C@@H]3O[C@H]1C[C@@H](N)[C@H](O)[C@H](C)O1	19.7%
CCCCNc1nc(NC(C)(C)C)nc(NC(C)(C)C)n1	0%
Cc1ccc2c(c1)-c1c(ssc1=S)C(C)(C)N2C(=O)c1ccco1	0.746%
COCCNC(=O)c1ccc(NCCc2ccc(Cl)cc2)c(S(=O)(=O)Nc2cccc(C(F)(F)F)c2)c1	0%

Compound	IFI
C(=NNc1nc2ccccc2[nH]1)c1c[nH]c2ccccc12	13.1%
N=c1n(Cc2ccccc2)c2ccccc2n1CC(O)c1ccc(Cl)c(Cl)c1 (stereo not drawn)	14.3%
Oc1ccc(Br)c(C(Nc2ccccn2)c2ccc3cccnc3c2O)c1 (stereo not drawn)	12.5%
CC(C=NNC(N)=S)=NNC(N)=S	21.8%
CCOC(=O)N1CCN(C(=O)CSc2nc(-c3ccc(Cl)cc3)cn2-c2ccc(C)cc2)CC1	0%
CCOC(=O)C1=C(C)N/C(=C\c2cc(C)n(-c3cccc(Br)c3)c2C)C1=O	0%
O=C1CC(c2nc3ccccc3n2CCCOc2ccccc2)CN1c1ccc(F)cc1 (stereo not drawn)	0%
O=C1c2ccccc2-n2c1nc1ccccc1c2=O	2.19%
CCCOC(=O)C1=C(C)NC2=C(C(=O)CC(c3ccc(OC)c(OC)c3)C2)C1c1ccc([N+](=O)[O-])cc1 (stereo not drawn)	2.38%
NC(=O)c1ccc(-n2nnnc2SCc2ccc(Cl)cc2)cc1	1.59%
Cc1ccc(NC(=O)CCCCC(=O)Nc2ccc(C)c(Br)c2)cc1Br	0%
Cc1[nH]c2ccccc2c1/C=C/c1cc[n+](C)cc1	4.44%
CCC(C)NC(=O)C1CSC(c2cccc(F)c2)N1C(=O)c1cc(OC)c(OC)c(OC)c1 (stereo not drawn)	1.92%
Oc1ccc(Nc2nc(N3CCCC3)c3ccccc3n2)cc1	4.54%
C=CCNC(=O)c1ccc2c(c1)N=CN(CCOc1ccccc1)C2	2.47%
Cc1oc2c(c1C(=O)NCC1CCCO1)C(=O)c1ccccc1C2=O (stereo not drawn)	17%
COc1ccc(C(=O)C[N+]2=C(C)c3ccc(C)n3CC2)cc1	0%
CC(NC(=O)C(=O)N1CCCCC1)C(c1cccs1)N1CCOCC1 (stereo not drawn)	1.41%
CCCCSc1ncnc2c1c(-c1ccccc1)cn2-c1cccc(F)c1	0%
COc1cc(C(=O)NCCc2cc3ccccc3[nH]2)ccc1OC1CCN(CC(c2ccccc2)c2ccccc2)CC1	5.56%
CCOc1cc(C2CC(=O)NC3=C2C(=O)CC(C)(C)C3)ccc1OC(C)C (stereo not drawn)	0%
OC(Cn1cnc(-c2ccccc2)c1-c1ccccc1)Cn1c2ccc(Br)cc2c2cc(Br)ccc21 (stereo not drawn)	0.719%
Cc1ccn2c(NC(C)(C)CC(C)(C)C)c(-c3ccccc3OC(=O)c3ccc(C(F)(F)F)cc3)nc2c1	7.02%
